# Reference: the supplement of paper PMC10037445
# ± gives the standard deviation of the averaged measurements. Over roughly 2,900 compounds, “IRF Lucia reporter activity, fold change vs agonist alone” has its median near 0.9; the highest 2% begin near 2.8. This is one part of the list.
# Columns and labels:
# RAW-Dual [1] = test: IRF Lucia reporter activity, fold change vs agonist alone; cytotoxicity flag (confluency mask): not cytotoxic; higher = enhanced IRF activity
# Outline: (§1)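 Library stock was pin-tooled at 50 nL into 384-well plates of RAW-Dual macrophages (50,000 cells/well, DMEM), followed 1 h later by a PRR agonist, and the cells were kept at 37 °C, 5% CO2. Supernatant collected after 20 hours was read for IRF by QuantiLuc luminescence and for NF-κB by QuantiBlue absorbance at 620 nm. Reporter activity is fold change over agonist-alone wells, and a well counted as cytotoxic when its IncuCyte confluency was below 70% of agonist controls in both mask sets.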
# RAW-Dual [2] = test: IRF Lucia reporter activity, fold change vs agonist alone; higher = enhanced IRF activity; details: library stock concentration (final ~1000-fold dilution): 10 mM, agonist: MPLA (TLR4) […]
# Outline: as §1
# RAW-Dual [3] = test: IRF Lucia reporter activity, fold change vs agonist alone; cytotoxicity flag (confluency mask): cytotoxic (confluency <70% of control); higher = enhanced IRF activity
# Outline: as §1
# [4] = agonist: 3'3'-cGAMP (STING) 10 ug/mL
# [5] = cytotoxicity flag (confluency mask): not cytotoxic
smiles,measurement,setting,value
Cl.Cl.OCCOCCN1CCN(C(c2ccccc2)c2ccc(Cl)cc2)CC1 (centres undefined) (library stock concentration (final ~1000-fold dilution): 10 mM),IRF Lucia reporter activity,RAW-Dual [1]; [4],0.828
same,IRF Lucia reporter activity,RAW-Dual [1]; agonist: LPS (TLR4) 0.1 ug/mL,1.22
COc1cccc(C=NCCN=Cc2cccc(OC)c2[O-])c1[O-].[Cl-].[Mn+2],IRF Lucia reporter activity,RAW-Dual [2]; [5],0.946
COc1cccc(C=NCCN=Cc2cccc(OC)c2[O-])c1[O-].[Cl-].[Mn+2] (library stock concentration (final ~1000-fold dilution): 10 mM),IRF Lucia reporter activity,RAW-Dual [1]; [4],1.06
same,IRF Lucia reporter activity,RAW-Dual [1]; agonist: LPS (TLR4) 0.1 ug/mL,0.762
Cc1cc(C(=O)C2=C(O)C(=O)N(CCCN3CCOCC3)C2c2ccncc2)ccc1OCc1ccccc1 (centres undefined) (library stock concentration (final ~1000-fold dilution): 10 mM),IRF Lucia reporter activity,RAW-Dual [1]; [4],1.08
same,IRF Lucia reporter activity,RAW-Dual [1]; agonist: LPS (TLR4) 0.1 ug/mL,1.12
N#Cc1ccc(COCC2OC(n3c(NCc4ccc(Cl)c(Cl)c4)nc4c(N)ncnc43)C(O)C2O)cc1 (centres undefined) (library stock concentration (final ~1000-fold dilution): 10 mM),IRF Lucia reporter activity,RAW-Dual [1]; [4],1.04
same,IRF Lucia reporter activity,RAW-Dual [1]; agonist: LPS (TLR4) 0.1 ug/mL,1.12
CCN1CCN(Cc2ccc(Nc3ncc(F)c(-c4cc(F)c5nc(C)n(C(C)C)c5c4)n3)nc2)CC1,IRF Lucia reporter activity,RAW-Dual [2]; [5],0.148
CCN1CCN(Cc2ccc(Nc3ncc(F)c(-c4cc(F)c5nc(C)n(C(C)C)c5c4)n3)nc2)CC1 (library stock concentration (final ~1000-fold dilution): 10 mM),IRF Lucia reporter activity,RAW-Dual [1]; [4],0.148
same,IRF Lucia reporter activity,RAW-Dual [1]; agonist: LPS (TLR4) 0.1 ug/mL,0.13
COCCc1ccc(OCC(O)CNC(C)C)cc1 (centres undefined) (library stock concentration (final ~1000-fold dilution): 10 mM),IRF Lucia reporter activity,RAW-Dual [1]; [4],1.04
same,IRF Lucia reporter activity,RAW-Dual [1]; agonist: LPS (TLR4) 0.1 ug/mL,1.38
COCCc1ccc(OCC(O)CNC(C)C)cc1 (centres undefined),IRF Lucia reporter activity,RAW-Dual [2]; [5],1.07
CC1OC(OC2C(=O)c3c(O)cc(O)cc3OC2c2ccc(O)cc2)C(O)C(O)C1O (centres undefined) (library stock concentration (final ~1000-fold dilution): 10 mM),IRF Lucia reporter activity,RAW-Dual [1]; [4],1.01 ± 0.044
same,IRF Lucia reporter activity,RAW-Dual [1]; agonist: LPS (TLR4) 0.1 ug/mL,0.948 ± 0.27
CC1(C)OCC(COC(=O)CCc2ccc(OCC(O)CNCCNC(=O)N3CCOCC3)cc2)O1.Cl (centres undefined),IRF Lucia reporter activity,RAW-Dual [2]; [5],1.1
CC1(C)OCC(COC(=O)CCc2ccc(OCC(O)CNCCNC(=O)N3CCOCC3)cc2)O1.Cl (centres undefined) (library stock concentration (final ~1000-fold dilution): 10 mM),IRF Lucia reporter activity,RAW-Dual [1]; [4],1.05
same,IRF Lucia reporter activity,RAW-Dual [1]; agonist: LPS (TLR4) 0.1 ug/mL,0.99
COc1ccc2c(c1)C(C(=O)N(Cc1ccc(N(C)C)cc1)c1ccc(C(C)C)cc1)CCC2 (centres undefined) (library stock concentration (final ~1000-fold dilution): 10 mM),IRF Lucia reporter activity,RAW-Dual [1]; [4],1.21
same,IRF Lucia reporter activity,RAW-Dual [1]; agonist: LPS (TLR4) 0.1 ug/mL,0.932
CC(C)=CCC(O)C1=CC(=O)c2c(O)ccc(O)c2C1=O (centres undefined) (library stock concentration (final ~1000-fold dilution): 10 mM),IRF Lucia reporter activity,RAW-Dual [1]; [4],0.00786
same,IRF Lucia reporter activity,RAW-Dual [1]; agonist: LPS (TLR4) 0.1 ug/mL,0.0123
CC(C)Cc1ccc(C(C)C(=O)O)cc1 (centres undefined) (library stock concentration (final ~1000-fold dilution): 10 mM),IRF Lucia reporter activity,RAW-Dual [1]; [4],1.12
same,IRF Lucia reporter activity,RAW-Dual [1]; agonist: LPS (TLR4) 0.1 ug/mL,1.02
CC(C)Cc1ccc(C(C)C(=O)O)cc1 (centres undefined),IRF Lucia reporter activity,RAW-Dual [2]; [5],1.06
CN1CC2c3ccccc3Oc3ccc(Cl)cc3C2C1.O=C(O)/C=C\C(=O)O (centres undefined),IRF Lucia reporter activity,RAW-Dual [2]; cytotoxicity flag (confluency mask): cytotoxic (confluency <70% of control),1.95
CN1CC2c3ccccc3Oc3ccc(Cl)cc3C2C1.O=C(O)/C=C\C(=O)O (centres undefined) (library stock concentration (final ~1000-fold dilution): 10 mM),IRF Lucia reporter activity,RAW-Dual [3]; [4],0.746
same,IRF Lucia reporter activity,RAW-Dual [3]; agonist: LPS (TLR4) 0.1 ug/mL,0.716
O=C(/C=C/N1CC2CC1CN2c1ccccn1)c1ccccc1O (centres undefined),IRF Lucia reporter activity,RAW-Dual [2]; [5],0.948
O=C(/C=C/N1CC2CC1CN2c1ccccn1)c1ccccc1O (centres undefined) (library stock concentration (final ~1000-fold dilution): 10 mM),IRF Lucia reporter activity,RAW-Dual [1]; [4],1.08
same,IRF Lucia reporter activity,RAW-Dual [1]; agonist: LPS (TLR4) 0.1 ug/mL,0.97
COc1ccnc(CS(=O)c2nc3ccc(OC(F)F)cc3[nH]2)c1OC (centres undefined),IRF Lucia reporter activity,RAW-Dual [2]; [5],1.02
COc1ccnc(CS(=O)c2nc3ccc(OC(F)F)cc3[nH]2)c1OC (centres undefined) (library stock concentration (final ~1000-fold dilution): 10 mM),IRF Lucia reporter activity,RAW-Dual [1]; [4],1.02
same,IRF Lucia reporter activity,RAW-Dual [1]; agonist: LPS (TLR4) 0.1 ug/mL,1.01
CN1CCC(=C2c3ccccc3CCn3c(C=O)cnc32)CC1,IRF Lucia reporter activity,RAW-Dual [2]; [5],0.987
CN1CCC(=C2c3ccccc3CCn3c(C=O)cnc32)CC1 (library stock concentration (final ~1000-fold dilution): 10 mM),IRF Lucia reporter activity,RAW-Dual [1]; [4],0.969
same,IRF Lucia reporter activity,RAW-Dual [1]; agonist: LPS (TLR4) 0.1 ug/mL,1.14
Cc1cc(F)c(C(=O)Nc2cccc(-c3nncn3C(C)C)n2)cc1-n1cnc(C2CC2)c1 (library stock concentration (final ~1000-fold dilution): 10 mM),IRF Lucia reporter activity,RAW-Dual [1]; [4],0.222
same,IRF Lucia reporter activity,RAW-Dual [1]; agonist: LPS (TLR4) 0.1 ug/mL,0.688
O=C(Nc1ccc(CN2CCOCC2)cc1)c1ccc(-c2cccc(Cl)c2)o1,IRF Lucia reporter activity,RAW-Dual [2]; [5],1.1
O=C(Nc1ccc(CN2CCOCC2)cc1)c1ccc(-c2cccc(Cl)c2)o1 (library stock concentration (final ~1000-fold dilution): 10 mM),IRF Lucia reporter activity,RAW-Dual [1]; [4],0.832
same,IRF Lucia reporter activity,RAW-Dual [1]; agonist: LPS (TLR4) 0.1 ug/mL,0.499
